{"source": "PubChem BioAssay AID1345083", "about": "(National Center for Advancing Translational Sciences (NCATS), 2018)", "note": "The whole screen tested about 94,000 compounds, of which about 6,200 (6.6%) were called active. This list was built around the results that the source calls inconclusive (neither active nor inactive); the mix of calls is not that of the screen. The call rests on the fitted dose curve; in most records, active means well fitted inhibition curve with a large enough effect; inconclusive means small, poorly fitted or top-dose-only effect; inactive means flat fitted curve, though single readings scatter. Potencies of inconclusive entries are doubtful fits and often do not repeat. On the % scale 0 is the no-effect control and ±100 the full control effect; potency means the concentration at half of the fitted maximal effect; tags describe the fitted curve by direction and shape.", "data": [{"test": "Cytotoxic Profiling in HEK 293 Cell Line of Diverse Libraries Using Quantitative High-Throughput Screening; further: nearly all actives have a fitted effect of over 60% in size", "settings": "HEK 293 viability, ATP luminescence (CellTiter-Glo), 48-72 h; activity change, negative = cytotoxicity: at 115 µM (top of the series) unless noted; series mostly up to 115 µM", "method_in_brief": "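HEK 293 cells at 250 cells/well were exposed to compounds by pintool transfer for 48 or 72 hr at 37 degree Celsius, 5% CO2. Viability was read as ATP-coupled luminescence with CellTiter-Glo after 10 min at room temperature.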", "values": [{"smiles": "Cc1nc(-c2c3n(c(=O)n(CC(=O)Nc4ccccc4)c2=O)CCCCC3)no1", "activity change, negative = cytotoxicity": "inactive: 2.58%"}, {"smiles": "COCCN1C(=O)[C@@H]2C[C@@H](CN2C(=O)c2ccccc2)Oc2ccccc21", "Potency": "inconclusive: 126 µM [inhibitor, single point]"}, {"smiles": "CCCC(C)C(=O)N1CCc2[nH]nc(C(=O)NCCCc3ccccc3)c2C1", "note": "(stereo not given)", "Potency": "active: 35.5 µM"}, {"smiles": "N#Cc1ccc(C(=O)Nc2ccc([C@H]3OCC(=O)N(C4CCOCC4)[C@@H]3CO)cc2)cc1", "activity change, negative = cytotoxicity": "inactive: -4.28%"}, {"smiles": "Cc1ccc(CNC(=O)c2c(C)sc3ccn(C)c(=O)c23)cc1", "activity change, negative = cytotoxicity": "inactive: -5.78%"}, {"smiles": "C[S+](=O)([O-])N1CCC(c2nnc3n2C(C(=O)NCc2cccc(Cl)c2)CC3)CC1", "note": "(stereo not given)", "outcome": "inactive"}, {"smiles": "O=C(NC1CCCC1)c1ccc2c(c1)N(C(=O)c1ccc(F)cc1)CC2", "Potency": "inconclusive: 89.1 µM [inhibitor, single point]"}, {"smiles": "CCCCn1c(=O)c(C(=O)N2CCCC(C)C2)nc2cccnc21", "note": "(stereo not given)", "activity change, negative = cytotoxicity": "inactive: -15% [at 172 µM]"}, {"smiles": "CC(C)CC(=O)N1CCN(c2nnc3ccccn23)CC1", "outcome": "inactive"}, {"smiles": "O=S(=O)(NC1CCCc2nc(-c3ccccc3)ncc21)N1CCCC1", "note": "(stereo not given)", "Potency": "inconclusive: 50.1 µM [inhibitor, partial curve, poor fit]"}, {"smiles": "CCOC(=O)C1CCCN(C(=O)c2cn3cc(-c4ccc(C)cc4)sc3n2)C1", "note": "(stereo not given)", "Potency": "inconclusive: 79.4 µM [inhibitor, partial curve]"}, {"smiles": "COC(=O)[C@H](CC1CCCCC1)NC(=O)[C@H]1CN(C(=O)c2cccc(F)c2)CCN1C(C)=O", "Potency": "inconclusive: 89.1 µM [inhibitor, single point]"}, {"smiles": "O=C(NC1CCN(Cc2cccc(-c3ccc(F)c(F)c3)c2)CC1)c1ccc(F)cc1", "Potency": "active: 39.8 µM"}, {"smiles": "C[S+](=O)([O-])CCn1ncc2cc(OCc3cccc(-c4cccc(O)c4)c3)ccc21", "Potency": "active: 70.8 µM"}, {"smiles": "O=C(NCc1cccs1)C1CCN(C(=O)c2ncn3c2COC(c2ccccc2)C3)CC1", "note": "(stereo not given)", "activity change, negative = cytotoxicity": "inactive: 3.52%"}, {"smiles": "COc1ccc(-c2cc(N3CCCC(NC(=O)c4cccc(N(C)C)c4)C3)n[nH]2)cc1", "note": "(stereo not given)", "Potency": "inconclusive: 44.7 µM [inhibitor, partial curve, poor fit]"}, {"smiles": "COc1cccc(Cn2c(=O)c3ccnn3c3ccc(C(=O)NCCCN(C)C)cc32)c1", "Potency": "active: 39.8 µM"}, {"smiles": "COc1cccc(Nc2n[nH]c(C(O)c3cccc(C(F)(F)F)c3)n2)c1", "note": "(stereo not given)", "Potency": "active: 79.4 µM"}, {"smiles": "CCCc1noc(-c2cn(C3CCN(C(=O)c4ccc(OC)c(OC)c4)CC3)nn2)n1", "Potency": "inconclusive: 89.1 µM [inhibitor, single point]"}, {"smiles": "CCOC(=O)[C@@H]1[C@@H](O)C(=O)N(Cc2ccccc2)C12CCN(C(=O)c1cc3ccccc3s1)CC2", "Potency": "inconclusive: 50.1 µM [inhibitor, partial curve, poor fit]"}]}]}
